# This is one part of the list.
# Tested on: T1, C. trachomatis L2/434/Bu expressing GFP (CTL2-GFP)
# T1 construct: L2/434/Bu GFP intracellular growth in HeLa cells
# Design: species or system HeLa; C. trachomatis total inclusion area by high-content imaging, normalised to DMSO
# Details: total inclusion area; 28.5 h, 10 µM; inhibitor
# How it was run: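 Bulk GFP and resorufin signals were read first. Wells were then fixed, stained with Hoechst and imaged to detect GFP inclusions and host nuclei. MICs followed the previously described calculation.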
row,SMILES,% of control remaining
1,O=C(Cc1ccccn1)N1CCc2ccccc2C1 [CBK200334],102.708
2,Cc1nnc(SCc2cc(=O)[nH]c(N3CCN(c4ccccc4F)CC3)n2)s1 [CBK270017],77.7463
3,O=C(Nc1cccc2ccccc12)C1CCCN1S(=O)(=O)c1ccc(Cl)cc1 (centres unmarked) [CBK138930],98.3621
4,CN1CCN(c2ccc(NC(=S)NC(=O)c3cc(Br)ccc3Cl)cc2)CC1 [CBK266254C],130.554
5,Nc1ccc2ccc(-c3ccccc3)nc2n1 [CBK061865],90.1636
6,CC(=O)Nc1ccc(Oc2cc(C)nc(C3CCCNC3)c2)cc1 (centres unmarked) [CBK283443],87.1694
7,CC1(C)CC(N(Cc2c[nH]cn2)Cc2ccccc2F)CC(C)(C)N1 [CBK282579],87.2306
8,COc1ccc2nc(-c3ccc(F)c(NC(=O)c4ccccc4)c3)cn2n1 [CBK287827],74.0479
9,Cc1ccc(S(=O)(=O)Nc2ccc(N3C[C@@H](C)N[C@@H](C)C3)c3ccccc23)cc1 [CBK001486C],60.7762
10,Fc1ccc(CN2CCC(c3n[nH]c4ncccc34)CC2)cc1 [CBK284902],95.6394
11,CC(C)NC1=NC(=O)C(CC(=O)Nc2ccccc2)S1 (centres unmarked) [CBK013880],41.3012
12,O=C(CSCc1c(F)cccc1Cl)Nc1ccc(S(=O)(=O)N2CCCCC2)cc1 [CBK268034],29.8837
13,COc1ccc2c(c1)C(=O)NC1(CCN(C(=O)c3ccc(OC)c(C)c3)CC1)O2 [CBK166291],144.725
14,Cc1ccc2cc(CN(Cc3ccccc3)S(C)(=O)=O)c(O)nc2c1 [CBK269329],112.266
15,Cc1ccc(-n2c(O)nnc2-c2ccc(Cl)c(Cl)c2)cc1 [CBK074887],95.8324
16,Cc1ccn2c(-c3csc(Nc4ccc(S(N)(=O)=O)cc4)n3)c(C)nc2c1 [CBK263304B],17.9311
17,O=C(Nc1ccncc1)c1ccc(S(=O)(=O)N2CCCC2)cc1 [CBK287786],108.343
18,CCn1cc(CN2CCCCCC2c2cc(C)no2)c(C)n1 (centres unmarked) [CBK282159],126.292
19,O=C(O)CCC(=O)Nc1ccc(S(=O)(=O)Nc2ccc(I)cc2)cc1 [CBK264866],50.7589
20,O=C1c2ccc(-n3c(=O)c4cc5c(=O)n(-c6ccc7c(c6)C(=O)N(c6ccccc6)C7=O)c(=O)c5cc4c3=O)cc2C(=O)N1c1ccccc1 [CBK262136],102.159
21,CC(NC1CCCN(c2ccc(C#N)cc2)C1=O)c1cncc(F)c1 (centres unmarked) [CBK306404],93.3482
22,Oc1ccc(Nc2cc(-c3ccccc3)ncn2)cc1 [CBK291157],95.8187
23,CN(C)CC(C)(C)CNC(=O)C1(c2ccccc2)CCCC1 [CBK149532],98.355
24,Cc1nn(CC(=O)Nc2ccc3c(c2)nc(CN2CCCC2)n3C)c(=O)c2ccccc12 [CBK268465],104.47
25,CC1(C)OC(N2CCN(Cc3ccccc3)CC2)=Nc2ccccc21 [CBK023933C],95.5062
26,COc1ccccc1-c1nccnc1OCCn1cccc1 [CBK106820],115.014
27,COCC(C)NS(=O)(=O)c1cc(C)ccc1OC (centres unmarked) [CBK270037],88.6611

row,SMILES,% of control remaining
1,CS(=O)(=O)N1CCCC(C(=O)Nc2ccc(S(N)(=O)=O)cc2)C1 (centres unmarked) [CBK268490],81.1898
2,CS(=O)(=O)N1CC2(CCN(Cc3ccc4nsnc4c3)CC2)c2ccccc21 [CBK136957],97.6745
3,O=C(NCCc1cccs1)Nc1ccc2c(c1)C(F)(F)OC(F)(F)O2 [CBK045255],85.8572
4,CC(C)c1ccc(C(C)NC(=O)c2ccc(=O)n(CC(=O)N3CCCCC3)c2)cc1 (centres unmarked) [CBK286084],111.617
5,CN(C)C(=O)CN1N=C(C(C)(C)C)Cn2c(cc3sccc32)C1=O [CBK284116],66.3131
6,CCN1CC2(CCC1=O)CCN(Cc1cccc(CCN)c1)CC2 [CBK306823],37.5914
7,O=C(O)C(=N\Nc1ccccc1)/C(=N/Nc1ccccc1)C(=O)O [CBK278303N],101.664
8,O=C(CSc1ccccc1)c1ccccc1 [CBK002224],97.4879
9,CCOC(=O)c1[nH]c2ccccc2c1NS(=O)(=O)c1ccc(OC)c(OC)c1 [CBK047421],96.9423
10,Cc1nnc(SCC(=O)N2c3ccccc3Sc3ccccc32)n1N [CBK265920],82.8017
11,COc1ccc([N+](=O)[O-])cc1NC(=O)c1cc(-c2ccccc2Cl)nc2ccc(C)cc12 [CBK267764],102.787
12,CCOC(=O)N1CCC(NC(=O)N(CCCN(C)C)Cc2ccc3c(c2)OCO3)CC1 [CBK159231],76.1059
13,CC(C)(CN)CN(Cc1ccc(-c2ccccc2)cc1)C(=O)Nc1ccccc1C(C)(C)C [CBK002476C],35.2652
14,COC(=O)c1ccc(NC(=O)CNc2ccccc2)cc1 [CBK268064],106.282
15,c1ccc2c(c1)CCCN2CCc1c[nH]c2ccccc12 [CBK138330],85.6092
16,Cc1noc(C)c1CC(=O)NC(C)CCc1ccc(F)cc1 (centres unmarked) [CBK281511],88.5004
17,O=C(O)C(CC(=O)N1CCOCC1)NCc1ccccc1 (centres unmarked) [CBK267000],115.582
18,O=S(=O)(Cc1ccc(Br)cc1)c1cc2c(N3CCNCC3)nccc2s1 [CBK045688C],78.6158
19,O=C(c1ccco1)N1CCN(c2ncccn2)CC1 [CBK144524],108.744
20,COc1ccc(-n2c3c(cc(C(=O)Nc4ccccc4Br)c2=O)C(=O)CCC3)cc1 [CBK293945],121.82
21,CCn1cc(CN2CCCN(C(=O)c3cc(Cl)c[nH]3)CC2)cn1 [CBK306153],50.9924
22,CC(=O)C1=C(O)C(=O)N(CCCO)C1c1cccc([N+](=O)[O-])c1 (centres unmarked) [CBK263753],112.978
23,O=C(NCc1cccnc1)c1ccc(CSc2ccccc2)cc1 [CBK300544],61.7691
24,Cn1nnnc1SCCNC(=O)Nc1ccc(CN2CCOCC2)cc1 [CBK307084],102.19
25,Cn1ncc(N2CCC(CNC(=O)c3cc(F)ccc3Cl)C2)cc1=O (centres unmarked) [CBK307286],72.0569
26,CC(C)N(CCOc1nccnc1-c1cnn(C)c1)C(C)C [CBK107084],94.7763
27,CCn1nc(C)c(-c2cncn2CC(C)N2CCC(C)CC2)c1C (centres unmarked) [CBK281593],91.1139

row,SMILES,% of control remaining
1,CN(C)CCN(Cc1ccccc1)C(=O)Nc1cccnc1 [CBK145047],96.8648
2,CCOC(=O)C1CCN(S(=O)(=O)c2ccc(Cl)s2)CC1 [CBK096109],95.4711
3,O=C(Nc1ccc(S(=O)(=O)N2CCOCC2)cc1)c1cc(-c2ccccc2)nc2ccccc12 [CBK264790],97.4484
4,COc1ccc2c(c1)-c1c(ss/c1=N\c1ccc(S(N)(=O)=O)cc1)C(C)(C)N2 [CBK263339],107.804
5,COc1ccc(-c2cc3cccnc3n2CC(=O)N2CCCC2)cc1 [CBK285379],111.06
6,Cc1ccc(C#N)cc1S(=O)(=O)NC1CC(=O)c2ccccc21 (centres unmarked) [CBK304030],43.053
7,Cc1c(C(=O)Nc2ccccn2)sc2nc(-c3ccccc3)cn12 [CBK287501],115.556
8,O=C(Cc1ccncc1)NC1Cc2ccccc2C1 [CBK200351],88.8229
9,CCOC(=O)c1cccnc1-c1ccc(S(C)(=O)=O)cc1 [CBK149242],81.2929
10,O=c1n(Cc2ccccn2)c2cccnc2n1Cc1cccs1 [CBK283867],77.7094
11,CCOC(=O)CS(=O)(=O)Cc1cc(Cl)nc(Cl)c1 [CBK005544],58.0154
12,Cc1ccc(S(=O)(=O)Nc2ccc(C3(c4ccc(NS(=O)(=O)c5ccc(C)cc5)cc4)c4ccccc4C(=O)c4ccccc43)cc2)cc1 [CBK261155],83.4605
13,COc1ccc(CNC(=O)C2CCCN(c3cnc4ccccc4n3)C2)cc1 (centres unmarked) [CBK287772],93.8417
14,CS(=O)(=O)c1nnn(CC#N)n1 [CBK026075],89.2125
15,Cc1cccc(C)c1OCCOCC(O)CN1CCN(C)CC1 (centres unmarked) [CBK278206C],90.1146
16,COCCNC(=O)CN(C)c1cnc2ccccc2n1 [CBK305265],64.8947
17,Fc1ccccc1-c1cn2ccnc2c(NCCc2cccnc2)n1 [CBK037473],124.627
18,O=C1NC(c2ccccc2)Cc2onc(-c3ccccc3)c21 (centres unmarked) [CBK004409],51.4543
19,O=C(O)C1CCN(C(=O)[C@@H]2Cc3ccccc3CN2)CC1 [CBK286638],107.885
20,NS(=O)(=O)c1cccc(NC(=O)COc2ccc([N+](=O)[O-])cc2)c1 [CBK263624],96.119
21,N#CCCCN1CCN(c2nccnc2OCc2ccc(Cl)c(Cl)c2)CC1 [CBK083086T],78.6666
22,CN(C1=NS(=O)(=O)c2ccccc21)c1ccc(OC(=O)C2CC(=O)N(c3ccccc3)C2)cc1 (centres unmarked) [CBK263849],91.5424
23,C[S+]([O-])CCNC(=O)c1cc(-c2cccs2)no1 (centres unmarked) [CBK282563],91.7534
24,Cc1cccc2cc3c(nc12)OCC(=O)N(Cc1ccco1)C3 [CBK283816],64.951
25,NCC(=O)Nc1ccc(Br)cc1C(=O)c1ccccc1Cl [CBK264692B],103.678
26,COCCC1CN(c2nc(N(C)C)nc3c2CCN(C(C)=O)C3)CCO1 (centres unmarked) [CBK307464],67.8205
